Where two headings read alike, the source gives them in different places.
T1: recombinant human IL-23R (custom-made by Trenzyme) (human, UniProt Q5VWK5 24-355)
T1 sequence (looked up): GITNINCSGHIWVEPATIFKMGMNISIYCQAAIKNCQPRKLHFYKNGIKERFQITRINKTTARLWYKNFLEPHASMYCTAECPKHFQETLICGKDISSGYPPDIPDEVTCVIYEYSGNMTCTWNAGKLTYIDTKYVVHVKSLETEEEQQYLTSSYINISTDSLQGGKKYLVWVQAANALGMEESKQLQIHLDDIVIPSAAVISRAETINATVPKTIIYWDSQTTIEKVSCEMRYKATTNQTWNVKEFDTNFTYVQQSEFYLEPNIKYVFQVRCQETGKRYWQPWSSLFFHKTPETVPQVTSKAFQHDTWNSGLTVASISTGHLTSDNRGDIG


What was measured:
[1] = target: T2, human PD-L1 expressed on cells (CHO-PD-L1, HCC1954, HCC827) (human, UniProt Q9NZQ7); experiment: flow cytometry with human SA, inhibition of PD-1 binding to HCC827 cells
T2 construct: whole, on cells; also called hPD-L1; PD-L1 expressing cells

mouse serum albumin = target: T3, mouse serum albumin (mouse, UniProt P07724 25-608); experiment: SPR, immobilised MSA, pH 5.5
T3 construct: also called MSA; mouse SA

human serum albumin = target: T4, human serum albumin (human, UniProt P02768); experiment: SPR, immobilised HSA, pH 5.5
T4 construct: also called HSA; human SA

[2] = target: T5, Fc-tagged human PD-L1 extracellular domain (SinoBiological, cat. 10084-H02H) (human, UniProt Q9NZQ7 partial chain); experiment: SPR, captured Fc-PD-L1 ECD, steady state
T5 construct: extracellular domain; also called hPD-L1; not shown: Fc tag of the bought protein

[3] = target: T2, human PD-L1 expressed on cells …; experiment: flow cytometry with human SA, inhibition of PD-1 binding to HCC1954 cells
[4] = target: CD3e on Jurkat PD-1 NFAT reporter T cells or on T cells of human PBMCs (human, UniProt P07766); experiment: cell-based or functional assay
[5] = target: T1, recombinant human IL-23R (custom-made …); experiment: SPR, immobilised IL-23R
[6] = target: T5, Fc-tagged human PD-L1 extracellular …; experiment: SPR, captured Fc-PD-L1 ECD, steady state; remark: listed apart in the source
[7] = target: T2, human PD-L1 expressed on cells …; experiment: flow cytometry, inhibition of biotinylated PD-1 binding to HCC1954 cells
[8] = target: T6, recombinant human CD3E ECD (SinoBiological, cat. 10977-H08H) (human, UniProt P07766 23-126); experiment: SPR, immobilised CD3e ECD, two-state model
T6 construct: extracellular domain; bought protein; also called CD3s

[9] = target: T6, recombinant human CD3E ECD …; experiment: SPR, immobilised CD3e ECD, two-state model (ka1)
[10] = target: T6, recombinant human CD3E ECD …; experiment: SPR, immobilised CD3e ECD, two-state model (kd1)

T6 sequence (P07766 23-126): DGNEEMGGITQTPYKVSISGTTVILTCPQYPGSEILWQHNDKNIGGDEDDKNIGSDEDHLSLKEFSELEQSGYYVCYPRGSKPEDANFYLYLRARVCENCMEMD
Chain of mouse serum albumin (P07724 25-608 limits assumed): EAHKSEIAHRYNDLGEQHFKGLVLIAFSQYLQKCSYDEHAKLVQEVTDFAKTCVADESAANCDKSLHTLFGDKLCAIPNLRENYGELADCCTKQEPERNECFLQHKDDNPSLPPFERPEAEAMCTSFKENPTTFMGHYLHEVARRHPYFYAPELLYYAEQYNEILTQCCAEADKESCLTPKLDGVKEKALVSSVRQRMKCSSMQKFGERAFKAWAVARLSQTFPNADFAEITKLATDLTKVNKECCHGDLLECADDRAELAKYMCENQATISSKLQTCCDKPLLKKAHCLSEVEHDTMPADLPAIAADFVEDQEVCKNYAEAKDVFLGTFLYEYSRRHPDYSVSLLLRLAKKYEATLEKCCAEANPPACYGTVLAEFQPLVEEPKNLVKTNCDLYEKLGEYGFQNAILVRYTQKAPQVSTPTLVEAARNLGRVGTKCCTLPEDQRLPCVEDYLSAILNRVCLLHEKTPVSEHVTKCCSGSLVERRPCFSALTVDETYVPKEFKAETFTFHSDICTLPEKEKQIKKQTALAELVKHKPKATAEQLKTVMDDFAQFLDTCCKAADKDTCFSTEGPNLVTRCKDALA

Row | Binder | IC50 [1] [µg/mL] | Kd (human serum albumin) [nM] | koff (human serum albumin) [s⁻¹] | kon (human serum albumin) [M⁻¹ s⁻¹] | Kd [2] [nM] | IC50 [3] [µg/mL] | also measured
1 | PRO1678 (multispecific antibody, also called scMATCH3) DIQMTQSPSSLSASVGDRVTITCQASQSINDYLAWYQQKPGKAPKLLIYKASTLASGVPSRFSGSGSGTDFTLTISSLQPEDFATYYCQAAYIITDIDNVFGTGTKVTVLGGGGGS[not shown - about 120 residues]GGGGSGGGGSGGGGSGGGGSIQMTQSPSSLSASVGDRVTITCRASQDVNTAVAWYQQKPGKAPKLLIYSASFLYSGVPSRFSGSRSGTDFTLTISSLQPEDFATYYCQQHYTTPPTFGCGTKLTVLGGGGGSQVQLQESGPGLVKPSETLSLTCKVSGFSFSSGYDMCWIRQPPGKGLEWIGCVVAGSVDITYYASWAKGRVTISVDSSKNQFSLKLSSVTAADTAVYYCARKDAYSDAFNLWGQGTLVTVSSGGGGSGGGGSVVMTQSPSSLSASVGDRVTITCQASQIISSRSAWYQQKPGQPPKLLIYQASKLASGVPSRFSGSGSGTDFTLTISSLQPEDFATYYCQCTYIDSNFGAFGGGTKLTVLGGGGGSGGGGSGGGGSGGGGSEVQLVESGGGLVQPGGSLRLSCAASGFSFSSSYWICWVRQAPGKGLEWVGCVFTGDGTTYYASWAKGRFTISRDNSKNTVYLQMNSLRAEDTATYFCARPVSVYYYGMDLWGQGTLVTVSS | 43.5 | 3.45 | 0.000762 | 221000 | 156 | 0.428 | Kd (mouse serum albumin): 37.8 nM; koff (mouse serum albumin): 0.00518 s⁻¹; kon (mouse serum albumin): 137000 M⁻¹ s⁻¹
2 | PRO1679 (multispecific antibody) DIQMTQSPSSLSASVGDRVTITCRASQDVNTAVAWYQQKPGKAPKLLIYSASFLYSGVPSRFSGSRSGTDFTLTISSLQPEDFATYYCQQHYTTPPTFGCGTKLTVLGGGGGSQVQLQESGPGLVKPSETLSLTCKVSGFSFSSGYDMCWIRQPPGKGLEWIGCVVAGSVDITYYASWAKGRVTISVDSSKNQFSLKLSSVTAADTAVYYCARKDAYSDAFNLWGQGTLVTVSSGGGGSGGGGSGGGGSGGGGSIQMTQSPSSLSASVGDRVTITCQASQSINDYLAWYQQKPGKAPKLLIYKASTLASGVPSRFSGSGSGTDFTLTISSLQPEDFATYYCQAAYIITDIDNVFGTGTKVTVLGGGGGS[not shown - about 120 residues]GGGGSGGGGSVVMTQSPSSLSASVGDRVTITCQASQIISSRSAWYQQKPGQPPKLLIYQASKLASGVPSRFSGSGSGTDFTLTISSLQPEDFATYYCQCTYIDSNFGAFGGGTKLTVLGGGGGSGGGGSGGGGSGGGGSEVQLVESGGGLVQPGGSLRLSCAASGFSFSSSYWICWVRQAPGKGLEWVGCVFTGDGTTYYASWAKGRFTISRDNSKNTVYLQMNSLRAEDTATYFCARPVSVYYYGMDLWGQGTLVTVSS | 119 | 3.89 | 0.000733 | 188000 | 122 | 0.652 | –
3 | PRO1547 (multispecific antibody) chain 1: [not shown - about 100 residues]RTVAAPSVFIFPPDVVMTQSPSSLSASVGDRVTITCQASQIISSRSAWYQQKPGQPPKLLIYQASKLASGVPSRFSGSGSGTDFTLTISSLQPEDFATYYCQCTYIDSNFGAFGCGTKLTVLGTVAAPSVFIFPPSDEQLKSGTASVVCLLNNFYPREAKVQWKVDNALQSGNSQESVTEQDSKDSTYSLSSTLTLSKADYEKHKVYACEVTHQGLSSPVTKSFNRGECGGGGSGGGGSDIQMTQSPSSLSASVGDRVTITCQSSQSVFSNNYLAWFQQKPGQSPKRLIYSASTLASGVPSRFSGSGSGTDFTLTISSLQPEDFATYYCLGSYACSSADCYVFGTGTKVTVLGGGGGSGGGGSGGGGSGGGGSEVQLVESGGGLVQPGGSLRLSCAASGFSLSSYDMSWVRQAPGKGLAWIGASYASGPTYYASWAKGRFTISRDNSKNTVYLQMNSLRAEDTATYFCARGGWTGTSHSNIWGQGTLVTVSS chain 2: [not shown - about 120 residues]ASTKGPSVFPLAPEVQLVESGGGLVQPGGSLRLSCAASGFSFSSSYWICWVRQAPGKCLEWVGCVFTGDGTTYYASWAKGRFTISRDNSKNTVYLQMNSLRAEDTATYFCARPVSVYYYGMDLWGQGTLVTVSSASTKGPSVFPLAPSSKSTSGGTAALGCLVKDYFPEPVTVSWNSGALTSGVHTFPAVLQSSGLYSLSSVVTVPSSSLGTQTYICNVNHKPSNTKVDKKVEPKSCGGGGSGGGGSIQMTQSPSSLSASVGDRVTITCQASQSINDYLAWYQQKPGKAPKLLIYKASTLASGVPSRFSGSGSGTDFTLTISSLQPEDFATYYCQAAYIITDIDNVFGTGTKVTVLGGGGGSGGGGSGGGGSGGGGSQVQLQESGPGLVKPSETLSLTCKVSGFSFSSGYDMCWIRQPPGKGLEWIGCVVAGSVDITYYASWAKGRVTISVDSSKNQFSLKLSSVTAADTAVYYCARKDAYSDAFNLWGQGTLVTVSS | – | – | – | – | – | – | IC50, NFAT reporter, CHO-PD-L1 (A2 clone) cells [4]: 142 nM; IC50, NFAT reporter, HCC1954 cells [4]: 0.779 nM; rel. max. activation vs PRO1497, NFAT reporter, HCC1954 cells [4]: 106%; rel. max. activation vs PRO1497 on HCC1954, NFAT reporter, CHO-PD-L1 (A2 clone) cells [4]: 19%; binding result [5]: no binding (tested: 90 nM highest concentration); Kd [6]: 916 nM; IC50 [7]: 0.522 µg/mL; KD1 [8]: 25.2 nM; Kd [8]: 14.5 nM; kd2 [8]: 0.000819 s⁻¹; kon [9]: 197000 M⁻¹ s⁻¹; koff [10]: 0.00497 s⁻¹

Continued, in another order:

Row | IC50 [1] [µg/mL] | Kd (human serum albumin) [nM] | koff (human serum albumin) [s⁻¹] | kon (human serum albumin) [M⁻¹ s⁻¹] | Kd [2] [nM] | IC50 [3] [µg/mL] | Binder | also measured
4 | 2100 | – | 0.000732 | 188000 | – | 1.15 | PRO1680 (multispecific antibody) DIQMTQSPSSLSASVGDRVTITCQASQSINDYLAWYQQKPGKAPKLLIYKASTLASGVPSRFSGSGSGTDFTLTISSLQPEDFATYYCQAGYIITDIDNVFGTGTKVTVLGGGGGS[not shown - about 120 residues]GGGGSGGGGSGGGGSGGGGSIQMTQSPSSLSASVGDRVTITCRASQDVNTAVAWYQQKPGKAPKLLIYSASFLYSGVPSRFSGSRSGTDFTLTISSLQPEDFATYYCQQHYTTPPTFGCGTKLTVLGGGGGSQVQLQESGPGLVKPSETLSLTCKVSGFSFSSGYDMCWIRQPPGKGLEWIGCVVAGSVDITYYASWAKGRVTISVDSSKNQFSLKLSSVTAADTAVYYCARKDAASDAFNLWGQGTLVTVSSGGGGSGGGGSVVMTQSPSSLSASVGDRVTITCQASQIISSRSAWYQQKPGQPPKLLIYQASKLASGVPSRFSGSGSGTDFTLTISSLQPEDFATYYCQCTYIDSNFGAFGGGTKLTVLGGGGGSGGGGSGGGGSGGGGSEVQLVESGGGLVQPGGSLRLSCAASGFSFSSSYWICWVRQAPGKGLEWVGCVFTGDGTTYYASWAKGRFTISRDNSKNTVYLQMNSLRAEDTATYFCARPVSVYYYGMDLWGQGTLVTVSS | –
5 | 1520 | 3.85 | 0.000737 | 191000 | – | 2.01 | PRO1681 (multispecific antibody) DIQMTQSPSSLSASVGDRVTITCRASQDVNTAVAWYQQKPGKAPKLLIYSASFLYSGVPSRFSGSRSGTDFTLTISSLQPEDFATYYCQQHYTTPPTFGCGTKLTVLGGGGGSQVQLQESGPGLVKPSETLSLTCKVSGFSFSSGYDMCWIRQPPGKGLEWIGCVVAGSVDITYYASWAKGRVTISVDSSKNQFSLKLSSVTAADTAVYYCARKDAASDAFNLWGQGTLVTVSSGGGGSGGGGSGGGGSGGGGSIQMTQSPSSLSASVGDRVTITCQASQSINDYLAWYQQKPGKAPKLLIYKASTLASGVPSRFSGSGSGTDFTLTISSLQPEDFATYYCQAGYIITDIDNVFGTGTKVTVLGGGGGS[not shown - about 120 residues]GGGGSGGGGSVVMTQSPSSLSASVGDRVTITCQASQIISSRSAWYQQKPGQPPKLLIYQASKLASGVPSRFSGSGSGTDFTLTISSLQPEDFATYYCQCTYIDSNFGAFGGGTKLTVLGGGGGSGGGGSGGGGSGGGGSEVQLVESGGGLVQPGGSLRLSCAASGFSFSSSYWICWVRQAPGKGLEWVGCVFTGDGTTYYASWAKGRFTISRDNSKNTVYLQMNSLRAEDTATYFCARPVSVYYYGMDLWGQGTLVTVSS | –

Reference: US20220411536A1 (NUMAB THERAPEUTICS, published 2022)
